Results are given in words; binding and its absence hold for the method and conditions named. For some of these results: Binding seen in cells or lysates may run through a third protein. Some entries that bind do so weakly or less than the wild type. For some of these results: Sequences can lack the tags named with a protein.

The chains behind the UniProt entries cited, without tags or fusion partners. Where a name states a change or a piece, a line headed by the entry shows the natural chain unless it says otherwise. A line that says so, or that is headed by a name, gives the form on record, which may keep a tag or linker. Residues count along the entry.
ITSN1 SH3d (aa1076-1138), recombinant (Q15811, residues 1076-1138): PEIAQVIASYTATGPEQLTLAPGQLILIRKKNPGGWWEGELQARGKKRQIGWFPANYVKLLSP
GST-tagged ITSN1 SH3d (aa1076-1138) I1078S (Q15811-1, form named): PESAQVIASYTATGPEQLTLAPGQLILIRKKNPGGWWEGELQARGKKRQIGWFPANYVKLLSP
GST-tagged ITSN1 SH3d (aa1076-1138) R1119A (Q15811-1, form named): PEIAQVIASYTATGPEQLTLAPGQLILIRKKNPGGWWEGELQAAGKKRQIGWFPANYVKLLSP
GST-tagged ITSN1 SH3d (aa1076-1138) R1119E (Q15811-1, form named): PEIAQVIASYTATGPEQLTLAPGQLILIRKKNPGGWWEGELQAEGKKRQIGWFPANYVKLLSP
GST-tagged ITSN1 SH3d (aa1076-1138) I1078K (Q15811-1, form named): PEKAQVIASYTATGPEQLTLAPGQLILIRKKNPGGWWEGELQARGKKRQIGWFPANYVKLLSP
UniProt Q9WVE9: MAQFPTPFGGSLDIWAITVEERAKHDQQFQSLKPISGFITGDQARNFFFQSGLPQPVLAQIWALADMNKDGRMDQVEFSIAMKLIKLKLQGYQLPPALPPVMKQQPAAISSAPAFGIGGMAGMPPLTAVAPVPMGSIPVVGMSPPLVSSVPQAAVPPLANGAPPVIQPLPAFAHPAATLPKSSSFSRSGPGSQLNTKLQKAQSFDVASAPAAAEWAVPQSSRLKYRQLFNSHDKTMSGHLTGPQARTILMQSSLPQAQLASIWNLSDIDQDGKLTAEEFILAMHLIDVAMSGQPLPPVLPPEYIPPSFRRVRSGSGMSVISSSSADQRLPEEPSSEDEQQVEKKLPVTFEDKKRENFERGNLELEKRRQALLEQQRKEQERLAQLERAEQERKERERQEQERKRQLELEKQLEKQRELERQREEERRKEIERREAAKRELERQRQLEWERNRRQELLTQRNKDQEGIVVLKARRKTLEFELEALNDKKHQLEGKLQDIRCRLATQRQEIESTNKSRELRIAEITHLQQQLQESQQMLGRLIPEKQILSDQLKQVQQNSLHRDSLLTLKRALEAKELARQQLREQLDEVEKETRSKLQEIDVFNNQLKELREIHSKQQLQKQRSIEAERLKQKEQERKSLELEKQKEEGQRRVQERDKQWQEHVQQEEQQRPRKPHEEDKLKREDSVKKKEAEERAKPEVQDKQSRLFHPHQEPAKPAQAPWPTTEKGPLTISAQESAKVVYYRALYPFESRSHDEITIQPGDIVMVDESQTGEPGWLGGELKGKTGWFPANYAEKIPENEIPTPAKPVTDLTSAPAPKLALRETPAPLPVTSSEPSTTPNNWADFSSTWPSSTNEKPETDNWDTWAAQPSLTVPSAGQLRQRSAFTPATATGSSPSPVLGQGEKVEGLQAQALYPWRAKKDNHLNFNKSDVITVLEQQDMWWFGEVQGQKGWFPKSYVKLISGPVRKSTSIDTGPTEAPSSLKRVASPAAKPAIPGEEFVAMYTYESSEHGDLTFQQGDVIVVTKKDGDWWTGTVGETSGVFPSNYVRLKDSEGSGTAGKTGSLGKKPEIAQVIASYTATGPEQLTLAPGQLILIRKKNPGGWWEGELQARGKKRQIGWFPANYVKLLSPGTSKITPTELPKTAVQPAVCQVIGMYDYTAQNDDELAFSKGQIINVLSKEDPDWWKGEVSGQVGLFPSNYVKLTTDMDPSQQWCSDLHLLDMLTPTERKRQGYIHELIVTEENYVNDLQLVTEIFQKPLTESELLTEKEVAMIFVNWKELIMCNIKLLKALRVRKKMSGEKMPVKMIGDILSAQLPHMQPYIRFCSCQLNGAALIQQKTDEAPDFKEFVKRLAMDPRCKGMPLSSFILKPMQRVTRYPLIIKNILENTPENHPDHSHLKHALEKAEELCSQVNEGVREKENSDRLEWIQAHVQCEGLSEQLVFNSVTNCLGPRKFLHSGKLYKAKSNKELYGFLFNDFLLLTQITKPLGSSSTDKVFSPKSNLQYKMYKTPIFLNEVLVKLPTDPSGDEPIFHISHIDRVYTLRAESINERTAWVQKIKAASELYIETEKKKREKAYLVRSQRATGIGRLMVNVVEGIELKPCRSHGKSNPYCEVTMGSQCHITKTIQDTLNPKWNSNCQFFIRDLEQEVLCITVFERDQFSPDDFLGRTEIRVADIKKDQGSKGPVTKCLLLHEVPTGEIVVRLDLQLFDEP
UniProt O08816: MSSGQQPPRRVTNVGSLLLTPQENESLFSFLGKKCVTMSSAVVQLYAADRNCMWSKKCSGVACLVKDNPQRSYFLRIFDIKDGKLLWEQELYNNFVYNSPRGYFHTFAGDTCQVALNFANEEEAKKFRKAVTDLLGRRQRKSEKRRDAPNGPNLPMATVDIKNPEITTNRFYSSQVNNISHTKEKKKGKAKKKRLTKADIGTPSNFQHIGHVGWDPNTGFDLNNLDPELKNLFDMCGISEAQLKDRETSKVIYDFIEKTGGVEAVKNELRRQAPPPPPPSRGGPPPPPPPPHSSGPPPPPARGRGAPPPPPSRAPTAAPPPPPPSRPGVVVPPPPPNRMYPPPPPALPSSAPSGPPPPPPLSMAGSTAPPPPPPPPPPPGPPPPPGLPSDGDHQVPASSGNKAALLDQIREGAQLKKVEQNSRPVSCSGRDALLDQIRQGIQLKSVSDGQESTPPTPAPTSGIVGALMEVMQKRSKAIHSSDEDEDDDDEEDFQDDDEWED

The target of assay [1] is GST-tagged ITSN1 SH3d (aa1076-1138) I1078S (human) (UniProt Q15811). Put plainly: pull-down; GST-tagged SH3 domains on glutathione beads incubated with recombinant protein for 10 min at room temperature, 6 washes; Coomassie stained gel; both purified.
Assay [2] deals with GST-tagged ITSN1 SH3d (aa1076-1138) R1119A (human) (UniProt Q15811). The description is as above.
Assay [3] addresses GST-tagged ITSN1 SH3d (aa1076-1138) R1119E (human) (UniProt Q15811). The description is as above.
In assay [4] the target is GST-tagged ITSN1 SH3d (aa1076-1138) I1078K (human) (UniProt Q15811). The assay is described as above.
The target of assay [5] is GST-tagged FCHSD2 SH3-2 (aa568-629) Y576S+F607S (human) (UniProt O94868). The description is as above.
Assay [6] addresses GST-tagged FCHSD2 SH3-2 (aa568-629) V622K+L623K (human) (UniProt O94868). The assay is described as above.
Assay [7] has as its target GST-tagged FCHSD2 SH3-2 (aa568-629), wild type (human) (UniProt O94868). Put plainly: pull-down; GST-tagged SH3 domains on glutathione beads incubated with rat brain lysate for 1 h at 4°C, 6 washes; immunoblots for N-WASP and ITSN1; only the target purified. Background: In western blotting, separated proteins are transferred to a membrane and probed.
Assay [8] has as its target T1, GST-tagged FCHSD1 SH3-2 (aa544-607) (mouse) (UniProt Q6PFY1).
T1 sequence: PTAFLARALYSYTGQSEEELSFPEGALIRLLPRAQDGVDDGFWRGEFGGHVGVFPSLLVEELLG
Described as above.

Assay [9] deals with T2, GST-tagged FCHSD2 SH3-1 (aa469-530) (human) (UniProt O94868).
T2 sequence: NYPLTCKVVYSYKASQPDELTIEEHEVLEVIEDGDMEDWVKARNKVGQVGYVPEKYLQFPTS
Described as above.

In assay [10] the target is T3, GST-tagged FCHSD1 SH3-1 (aa466-527) (mouse) (UniProt Q6PFY1).
T3 sequence: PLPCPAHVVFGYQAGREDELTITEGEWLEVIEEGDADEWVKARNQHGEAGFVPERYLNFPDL
The assay is described as above.

In the case of “FCHSD2 SH3-2 (aa568-629), recombinant (from UniProt O94868-1 568-629) (domain or fragment)”, the binding entry in [1], in assay [2], in assay [3] and in [4] was “no binding” throughout.
Consider “ITSN1 SH3d (aa1076-1138), recombinant (from UniProt Q15811-1 1076-1138) (domain or fragment)”, for which the binding result in [5] and in assay [6] was “no binding” in each case.
As for “Intersectin1 (endogenous, brain extract) (from UniProt Q9WVE9 1-1713)”, the binding entry in assay [7] and in [8] was “binds” each time.
On to “N-WASP (endogenous, brain extract) (from UniProt O08816 1-501)”, for which the binding entry in assay [9] and in assay [10] was “binds” each time.
